# The list shows a part of the results.
# Columns and labels:
# Test in all cases: glycan array binding signal (z-score within array); higher = stronger binding
# Settings in all cases: glycan notation: IUPAC condensed, linker removed; mutation: N224Q
# [1] = target: Fuc(a1-2)[Gal(a1-3)]Gal(b1-4)GlcNAc(b1-2)Man(a1-3)[Fuc(a1-2)[Gal(a1-3)]Gal(b1-4)GlcNAc(b1-2)Man(a1-6)]Man(b1-4)GlcNAc(b1-4)GlcNAc
# Outline: (§1)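 Arrays were curated from the Consortium for Functional Glycomics database, 3228 in total, and kept only where the protein sequence was available. Binding is expressed as a within-array Z-score. This score was averaged across arrays of the same protein sequence at different concentrations or buffers and across linkers, and negative values can be read as non-binding.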
# [2] = target: Fuc(a1-2)[Gal(a1-3)]Gal(b1-4)GlcNAc(b1-2)Man(a1-3)[Fuc(a1-2)[Gal(a1-3)]Gal(b1-4)GlcNAc(b1-2)Man(a1-6)]Man(b1-4)GlcNAc(b1-4)[Fuc(a1-6)]GlcNAc
# Outline: as §1
# [3] = target: Fuc(a1-2)[Gal(a1-3)]Gal(b1-4)GlcNAc(b1-3)GalNAc
# Outline: as §1
# [4] = target: Fuc(a1-2)[Gal(a1-3)]Gal(b1-4)GlcNAc(b1-3)[Fuc(a1-2)[Gal(a1-3)]Gal(b1-4)GlcNAc(b1-6)]GalNAc
# Outline: as §1
# [5] = target: Fuc(a1-2)[Gal(a1-3)]Gal(b1-4)GlcNAc(b1-6)GalNAc
# Outline: as §1
# [6] = target: Fuc(a1-2)[Gal(a1-3)]Gal(b1-4)[Fuc(a1-3)]Glc
# Outline: as §1
# [7] = target: Fuc(a1-2)[Gal(a1-3)]Gal(b1-4)[Fuc(a1-3)]GlcNAc
# Outline: as §1
# [8] = target: Fuc(a1-2)[Gal(a1-3)]Gal(b1-4)[Fuc(a1-3)]GlcNAc(b1-3)GalNAc
# Outline: as §1
# [9] = target: Fuc(a1-2)[Gal(a1-4)]Gal(b1-4)GlcNAc
# Outline: as §1
# [10] = target: Fuc(a1-2)[GalNAc(a1-3)]Gal
# Outline: as §1
# [11] = target: Fuc(a1-2)[GalNAc(a1-3)]Gal(b1-3)GalNAc(a1-3)[Fuc(a1-2)]Gal(b1-4)GlcNAc
# Outline: as §1
# [12] = target: Fuc(a1-2)[GalNAc(a1-3)]Gal(b1-3)GalNAc(b1-3)Gal(a1-4)Gal(b1-4)Glc
# Outline: as §1
# [13] = target: Fuc(a1-2)[GalNAc(a1-3)]Gal(b1-3)GlcNAc
# Outline: as §1
# [14] = target: Fuc(a1-2)[GalNAc(a1-3)]Gal(b1-3)GlcNAc(b1-2)Man(a1-3)[Fuc(a1-2)[GalNAc(a1-3)]Gal(b1-3)GlcNAc(b1-2)Man(a1-6)]Man(b1-4)GlcNAc(b1-4)GlcNAc
# Outline: as §1
# [15] = target: Fuc(a1-2)[GalNAc(a1-3)]Gal(b1-3)GlcNAc(b1-2)Man(a1-3)[Fuc(a1-2)[GalNAc(a1-3)]Gal(b1-3)GlcNAc(b1-2)Man(a1-6)]Man(b1-4)GlcNAc(b1-4)[Fuc(a1-6)]GlcNAc
# Outline: as §1
# [16] = target: Fuc(a1-2)[GalNAc(a1-3)]Gal(b1-3)GlcNAc(b1-3)GalNAc
# Outline: as §1
# [17] = target: Fuc(a1-2)[GalNAc(a1-3)]Gal(b1-3)GlcNAc(b1-6)GalNAc
# Outline: as §1
# [18] = target: Fuc(a1-2)[GalNAc(a1-3)]Gal(b1-4)Glc
# Outline: as §1
# [19] = target: Fuc(a1-2)[GalNAc(a1-3)]Gal(b1-4)GlcNAc
# Outline: as §1
# [20] = target: Fuc(a1-2)[GalNAc(a1-3)]Gal(b1-4)GlcNAc(b1-2)Man
# Outline: as §1
# [21] = target: Fuc(a1-2)[GalNAc(a1-3)]Gal(b1-4)GlcNAc(b1-2)Man(a1-3)[Fuc(a1-2)[GalNAc(a1-3)]Gal(b1-4)GlcNAc(b1-2)Man(a1-6)]Man(b1-4)GlcNAc(b1-4)GlcNAc
# Outline: as §1
# [22] = target: Fuc(a1-2)[GalNAc(a1-3)]Gal(b1-4)GlcNAc(b1-2)Man(a1-3)[Fuc(a1-2)[GalNAc(a1-3)]Gal(b1-4)GlcNAc(b1-2)Man(a1-6)]Man(b1-4)GlcNAc(b1-4)[Fuc(a1-6)]GlcNAc
# Outline: as §1
# [23] = target: Fuc(a1-2)[GalNAc(a1-3)]Gal(b1-4)GlcNAc(b1-3)Gal(b1-4)GlcNAc
# Outline: as §1
# [24] = target: Fuc(a1-2)[GalNAc(a1-3)]Gal(b1-4)GlcNAc(b1-3)Gal(b1-4)GlcNAc(b1-3)Gal(b1-4)GlcNAc
# Outline: as §1
# [25] = target: Fuc(a1-2)[GalNAc(a1-3)]Gal(b1-4)GlcNAc(b1-3)GalNAc
# Outline: as §1
# [26] = target: Fuc(a1-2)[GalNAc(a1-3)]Gal(b1-4)GlcNAc(b1-3)[Fuc(a1-2)[GalNAc(a1-3)]Gal(b1-4)GlcNAc(b1-6)]GalNAc
# Outline: as §1
# [27] = target: Fuc(a1-2)[GalNAc(a1-3)]Gal(b1-4)GlcNAc(b1-6)GalNAc
# Outline: as §1
# [28] = target: Fuc(a1-2)[GalNAc(a1-3)]Gal(b1-4)[Fuc(a1-3)]GlcNAc
# Outline: as §1
# [29] = target: Fuc(a1-2)[GalNAc(a1-3)]Gal(b1-4)[Fuc(a1-3)]GlcNAc(b1-3)GalNAc
# Outline: as §1
# [30] = target: Fuc(a1-2)[GalNAc(a1-4)]Gal(b1-4)GlcNAc
# Outline: as §1
# [31] = target: Fuc(a1-2)[GalNAc(b1-3)]Gal
# Outline: as §1
# [32] = target: Fuc(a1-3)GlcNAc
# Outline: as §1
# [33] = target: Fuc(a1-3)[Gal(b1-4)]Glc6S
# Outline: as §1
# [34] = target: Fuc(a1-3)[Gal(b1-4)]GlcNAc
# Outline: as §1
# [35] = target: Fuc(a1-3)[Gal(b1-4)]GlcNAc(b1-2)Man
# Outline: as §1
# [36] = target: Fuc(a1-3)[Gal(b1-4)]GlcNAc(b1-2)Man(a1-3)[Fuc(a1-3)[Gal(b1-4)]GlcNAc(b1-2)Man(a1-6)]Man(b1-4)GlcNAc(b1-4)GlcNAc
# Outline: as §1
# [37] = target: Fuc(a1-3)[Gal(b1-4)]GlcNAc(b1-2)Man(a1-3)[Fuc(a1-3)[Gal(b1-4)]GlcNAc(b1-2)Man(a1-6)]Man(b1-4)GlcNAc(b1-4)[Fuc(a1-6)]GlcNAc
# Outline: as §1
# [38] = target: Fuc(a1-3)[Gal(b1-4)]GlcNAc(b1-3)Gal(b1-3)[Fuc(a1-4)]GlcNAc
# Outline: as §1
# [39] = target: Fuc(a1-3)[Gal(b1-4)]GlcNAc(b1-3)Gal(b1-4)[Fuc(a1-3)]GlcNAc
# Outline: as §1
# [40] = target: Fuc(a1-3)[Gal(b1-4)]GlcNAc(b1-3)Gal(b1-4)[Fuc(a1-3)]GlcNAc(b1-3)Gal(b1-4)[Fuc(a1-3)]GlcNAc
# Outline: as §1
# [41] = target: Fuc(a1-3)[Gal(b1-4)]GlcNAc(b1-3)GalNAc
# Outline: as §1
# [42] = target: Fuc(a1-3)[Gal(b1-4)]GlcNAc(b1-6)GalNAc
# Outline: as §1
# [43] = target: Fuc(a1-3)[Gal(b1-4)]GlcNAc(b1-6)[Gal(b1-3)GlcNAc(b1-3)]Gal(b1-4)Glc
# Outline: as §1
# [44] = target: Fuc(a1-3)[Gal(b1-4)]GlcNAc6S
# Outline: as §1
# [45] = target: Fuc(a1-3)[Gal3S(b1-4)]Glc
# Outline: as §1
# [46] = target: Fuc(a1-3)[Gal3S(b1-4)]GlcNAc
# Outline: as §1
# [47] = target: Fuc(a1-3)[Gal3S(b1-4)]GlcNAc6S
# Outline: as §1
# [48] = target: Fuc(a1-3)[GalNAc(b1-4)]GlcNAc
# Outline: as §1
# [49] = target: Fuc(a1-3)[GalNAc(b1-4)]GlcNAc6S
# Outline: as §1
# [50] = target: Fuc(a1-4)GlcNAc
# Outline: as §1
# [51] = target: Fuc(b1-3)GlcNAc
# Outline: as §1
# [52] = target: Gal(a1-2)Gal
# Outline: as §1
# [53] = target: Gal(a1-3)Gal
# Outline: as §1
# [54] = target: Gal(a1-3)Gal(b1-3)GlcNAc
# Outline: as §1
# [55] = target: Gal(a1-3)Gal(b1-3)GlcNAc(b1-2)Man
# Outline: as §1
# [56] = target: Gal(a1-3)Gal(b1-3)GlcNAc(b1-2)Man(a1-3)[Gal(a1-3)Gal(b1-3)GlcNAc(b1-2)Man(a1-6)]Man(b1-4)GlcNAc(b1-4)GlcNAc
# Outline: as §1
# [57] = target: Gal(a1-3)Gal(b1-3)GlcNAc(b1-3)GalNAc
# Outline: as §1
# [58] = target: Gal(a1-3)Gal(b1-3)GlcNAc(b1-6)GalNAc
# Outline: as §1
# [59] = target: Gal(a1-3)Gal(b1-3)[Fuc(a1-4)]GlcNAc(b1-2)Man(a1-3)[Gal(a1-3)Gal(b1-3)[Fuc(a1-4)]GlcNAc(b1-2)Man(a1-6)]Man(b1-4)GlcNAc(b1-4)GlcNAc
# Outline: as §1
# [60] = target: Gal(a1-3)Gal(b1-4)Glc
# Outline: as §1
binder,measurement,setting,value
AAL (Aleuria aurantia) (protein) MPTEFLYTSKIAAISWAATGGRQQRVYFQDLNGKIREAQRGGDNPWTGGSSQNVIGEAKLFSPLAAVTWKSAQGIQIRVYCVNKDNILSEFVYDGSKWITGQLGSVGVKVGSNSKLAALQWGGSESAPPNIRVYYQKSNGSGSSIHEYVWSGKWTAGASFGSTVPGTGIGATAIGPGRLRIYYQATDNKIREHCWDSNSWYVGGFSASASAGVSIAAISWGSTPQIRVYWQKGREELYEAAYGGSWNTPGQIKDASRPTPSLPDTFIAANSSGNIDISVFFQASGVSLQQWQWISGKGWSIGAVVPTGTPAGW,glycan array binding signal (z-score),[1],-0.306
same,glycan array binding signal (z-score),[2],-0.153
same,glycan array binding signal (z-score),[3],-0.314
same,glycan array binding signal (z-score),[4],-0.296
same,glycan array binding signal (z-score),[5],-0.294
same,glycan array binding signal (z-score),[6],-0.267
same,glycan array binding signal (z-score),[7],-0.289
same,glycan array binding signal (z-score),[8],-0.295
same,glycan array binding signal (z-score),[9],5.8
same,glycan array binding signal (z-score),[10],0.989
same,glycan array binding signal (z-score),[11],-0.313
same,glycan array binding signal (z-score),[12],-0.298
same,glycan array binding signal (z-score),[13],-0.31
same,glycan array binding signal (z-score),[14],-0.303
same,glycan array binding signal (z-score),[15],-0.247
same,glycan array binding signal (z-score),[16],-0.266
same,glycan array binding signal (z-score),[17],-0.313
same,glycan array binding signal (z-score),[18],-0.309
same,glycan array binding signal (z-score),[19],-0.304
same,glycan array binding signal (z-score),[20],-0.305
same,glycan array binding signal (z-score),[21],-0.299
same,glycan array binding signal (z-score),[22],-0.267
same,glycan array binding signal (z-score),[23],-0.281
same,glycan array binding signal (z-score),[24],-0.288
same,glycan array binding signal (z-score),[25],-0.32
same,glycan array binding signal (z-score),[26],-0.312
same,glycan array binding signal (z-score),[27],-0.301
same,glycan array binding signal (z-score),[28],-0.286
same,glycan array binding signal (z-score),[29],-0.27
same,glycan array binding signal (z-score),[30],5.38
same,glycan array binding signal (z-score),[31],-0.028
same,glycan array binding signal (z-score),[32],3.92
same,glycan array binding signal (z-score),[33],-0.293
same,glycan array binding signal (z-score),[34],0.827
same,glycan array binding signal (z-score),[35],-0.29
same,glycan array binding signal (z-score),[36],-0.189
same,glycan array binding signal (z-score),[37],-0.264
same,glycan array binding signal (z-score),[38],-0.272
same,glycan array binding signal (z-score),[39],1.96
same,glycan array binding signal (z-score),[40],2.66
same,glycan array binding signal (z-score),[41],-0.077
same,glycan array binding signal (z-score),[42],-0.258
same,glycan array binding signal (z-score),[43],0.019
same,glycan array binding signal (z-score),[44],-0.274
same,glycan array binding signal (z-score),[45],-0.018
same,glycan array binding signal (z-score),[46],1.04
same,glycan array binding signal (z-score),[47],0.419
same,glycan array binding signal (z-score),[48],1.36
same,glycan array binding signal (z-score),[49],1.03
same,glycan array binding signal (z-score),[50],6.22
same,glycan array binding signal (z-score),[51],4.57
same,glycan array binding signal (z-score),[52],-0.312
same,glycan array binding signal (z-score),[53],-0.314
same,glycan array binding signal (z-score),[54],-0.31
same,glycan array binding signal (z-score),[55],-0.312
same,glycan array binding signal (z-score),[56],-0.268
same,glycan array binding signal (z-score),[57],-0.298
same,glycan array binding signal (z-score),[58],-0.314
same,glycan array binding signal (z-score),[59],-0.209
same,glycan array binding signal (z-score),[60],-0.311
